The results in this text go back to publication PMC4641898.

By UniProt entry, the sequences of proteins in these tests, tags left out. Where a name states a change or a piece, a line headed by the entry shows the natural chain unless it says otherwise.
UniProt P22953: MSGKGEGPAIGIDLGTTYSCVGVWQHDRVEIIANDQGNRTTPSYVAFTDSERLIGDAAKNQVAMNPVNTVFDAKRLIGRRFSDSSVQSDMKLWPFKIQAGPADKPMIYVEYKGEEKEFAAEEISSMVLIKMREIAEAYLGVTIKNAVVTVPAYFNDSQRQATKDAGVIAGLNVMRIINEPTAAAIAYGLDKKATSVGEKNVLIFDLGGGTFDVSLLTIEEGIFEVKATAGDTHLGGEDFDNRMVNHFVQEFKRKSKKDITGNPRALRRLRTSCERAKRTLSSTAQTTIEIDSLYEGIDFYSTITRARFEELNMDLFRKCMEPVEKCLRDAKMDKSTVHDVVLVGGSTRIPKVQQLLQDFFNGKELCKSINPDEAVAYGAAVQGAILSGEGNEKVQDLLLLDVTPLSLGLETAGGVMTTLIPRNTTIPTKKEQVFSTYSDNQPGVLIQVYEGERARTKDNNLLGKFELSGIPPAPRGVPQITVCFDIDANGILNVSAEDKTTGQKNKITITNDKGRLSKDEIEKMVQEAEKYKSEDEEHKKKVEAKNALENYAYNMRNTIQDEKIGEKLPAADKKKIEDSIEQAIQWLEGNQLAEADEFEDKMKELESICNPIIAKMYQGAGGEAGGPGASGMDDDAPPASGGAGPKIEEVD

No constants are given. Whether binding was seen depends on the method and setting. For some assays here: Binding seen in cells or lysates may run through a third protein. Some entries that bind do so weakly or less than the wild type. Tags and fused reporters may be left off the sequences shown.

Assay [1] addresses T1, RRM protein (At5g10350), full length, split-YFP fusion in tobacco BY-2 protoplasts (Arabidopsis thaliana) (UniProt Q9LX90).
T1 sequence: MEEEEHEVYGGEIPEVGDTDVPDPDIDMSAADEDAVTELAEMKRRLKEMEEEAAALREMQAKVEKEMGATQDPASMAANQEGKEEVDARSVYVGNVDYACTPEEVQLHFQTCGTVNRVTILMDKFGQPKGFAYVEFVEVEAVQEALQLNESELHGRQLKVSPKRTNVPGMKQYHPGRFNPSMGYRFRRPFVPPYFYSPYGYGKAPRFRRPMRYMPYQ
The assay is described as follows: split reporter; BiFC screen: nYFP-RRM against a cYFP-tagged Arabidopsis cDNA library in tobacco BY-2 protoplasts; the identified cYFP clones co-transfected with nYFP-RRM and mRFP-VirD2NLS.

Assay [2] has as its target T2, RRM protein (At5g10350), full length, yeast two-hybrid fusion (Arabidopsis thaliana) (UniProt Q9LX90).
T2 sequence: T1 sequence
Put plainly: two-hybrid; GAL4-based Matchmaker system, pGADT7-DEST and pGBKT7-DEST fusions co-transformed into S. cerevisiae PJ69-4a (His3 and Ade2 reporters); histidine and stringent adenine selection.

Consider “cYFP-tagged Heat Shock Cognate protein 70-1 fragment HSP70-1(1-211), cDNA library clone (from UniProt P22953 1-211) (domain or fragment)”, for which, in assay [1], the binding entry is given as “binds”. Take “Heat Shock Cognate protein 70-1 (HSP70-1), full length, yeast two-hybrid fusion (from UniProt P22953 1-651)”: the binding result in assay [2] was “no binding”.
